± gives the standard deviation of the averaged measurements. M. abscessus ATCC 19977 and its deletion, point and complemented mutants after 5 days of drug at 37 °C plus 24 h of resazurin. Growth in % of untreated wells at the dose given (lower = more inhibition); checkerboards give % inhibition (higher = more inhibition); IC50 from the fitted curve (lower = more potent). No active / inactive call. IC50 values come from the same 384-well curves. Growth is not capped and can exceed 100%. The direction of the checkerboard scale is read from the raw signals. Capreomycin is a mixture.
Legend:
Assay in all cases: growth relative to untreated wells; higher = more growth
[1] = tested on: Mycobacterium abscessus ATCC 19977 WhiB7 A51T with pOLYG-aac(3)IV
Protocol: (§1)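 Two-fold dose series, three replicates; 5 days at 37 °C, then 24 h with resazurin; fluorescence scaled to growth and killed controls.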

[2] = tested on: Mycobacterium abscessus ATCC 19977 Δeis2 with pOLYG-aac(3)IV
Protocol: as §1

[3] = tested on: Mycobacterium abscessus ATCC 19977 ΔwhiB7 with pOLYG-aac(3)IV-eis2
Protocol: as §1

[4] = tested on: Mycobacterium abscessus ATCC 19977 Eis2 T258R with pOLYG-aac(3)IV-eis2
Protocol: as §1

[5] = tested on: Mycobacterium abscessus ATCC 19977 ΔwhiB7 with pOLYG-aac(3)IV
Protocol: as §1

[6] = tested on: Mycobacterium abscessus ATCC 19977 Eis2 T258R with pOLYG-aac(3)IV
Protocol: as §1

[7] = tested on: Mycobacterium abscessus ATCC 19977 Δeis2 with pOLYG-aac(3)IV-eis2
Protocol: as §1

[8] = tested on: Mycobacterium abscessus ATCC 19977 WhiB7 A51T with pOLYG-aac(3)IV-eis2
Protocol: as §1

NCC[C@H](O)C(=O)N[C@@H]1C[C@H](N)[C@@H](O[C@H]2O[C@H](CN)[C@@H](O)[C@H](O)[C@H]2O)[C@H](O)[C@H]1O[C@H]1O[C@H](CO)[C@@H](O)[C@H](N)[C@H]1O [amikacin]
growth [%]
Settings	[1]	[2]	[3]	[4]	[5]	[6]	[7]
0.03125 µg/mL	98.3 ± 7.9	103 ± 2.7	105 ± 2.6	115 ± 8	92.9 ± 2.9	101.5 ± 0.95	85.4 ± 3.2
0.0625 µg/mL	91.2 ± 2.5	99.1 ± 2.3	106 ± 4.8	112 ± 2.4	88.4 ± 1.9	99.3 ± 3.7	85.8 ± 3.1
0.125 µg/mL	110 ± 2.7	106.7 ± 0.83	106 ± 5.3	110 ± 2.2	105 ± 2.2	108 ± 2.4	84.5 ± 5.1
0.25 µg/mL	65.2 ± 37	81.3 ± 4.1	103 ± 5.6	110 ± 2.3	44.9 ± 8.1	40.6 ± 16	81.9 ± 3.2
0.5 µg/mL	-5.07 ± 1.4	-1.44 ± 0.78	97.7 ± 4.7	107 ± 3.7	-4.49 ± 0.95	-3.79 ± 1.8	81.8 ± 3
1 µg/mL	-7.02 ± 1.1	-2.32 ± 0.36	83.2 ± 8.3	97.5 ± 2.7	-5.71 ± 0.85	-4.96 ± 2	80.1 ± 2.2
2 µg/mL	-7.92 ± 1.3	-1.27 ± 2	45.7 ± 1.2	109 ± 6	-5.85 ± 0.87	-4.96 ± 1.8	107 ± 3.7
4 µg/mL	-7.15 ± 1.1	-2.73 ± 0.28	13.8 ± 3.6	88.1 ± 8	-5.34 ± 0.83	-4.17 ± 2.2	87.3 ± 6.1
8 µg/mL	-6.5 ± 0.86	-2.14 ± 1.1	-5.87 ± 0.42	46.7 ± 14	-4.73 ± 0.8	-4.16 ± 1.9	61.6 ± 2.2
16 µg/mL	-4.41 ± 0.85	-2.06 ± 0.48	-4.43 ± 1.2	11.1 ± 14	-3.17 ± 0.75	-2.86 ± 2.2	19.4 ± 2
32 µg/mL	0.0971 ± 1.3	-0.959 ± 0.55	-1.45 ± 0.85	0.49 ± 3.2	2.37 ± 2.6	1.52 ± 1.4	0.238 ± 1.1

CS(=O)(=O)c1ccc([C@@H](O)[C@H](N)CF)cc1 [florfenicol amine]
growth [%]
Settings	[1]	[2]	[3]	[4]	[5]	[6]	[7]	[8]
1 µg/mL	105.4 ± 0.61	96 ± 6.1	103.4 ± 0.31	88.7 ± 3.9	106 ± 1.4	94.8 ± 5.8	114.6 ± 0.21	107 ± 2.6
2 µg/mL	103 ± 2.8	92.4 ± 3.2	100 ± 0.74	74.9 ± 2.1	100.3 ± 0.79	98.8 ± 2.2	106 ± 2	111 ± 2.8
4 µg/mL	100 ± 1.4	91.8 ± 9.8	100 ± 3.3	68.2 ± 0.96	96.9 ± 3.1	102 ± 1.4	97 ± 0.98	107 ± 8.4
8 µg/mL	100 ± 2.8	92.9 ± 3.5	88.4 ± 0.98	59.6 ± 1.3	95 ± 5	98.5 ± 4.2	85.3 ± 2	82.6 ± 4.2
16 µg/mL	101 ± 2.6	96.9 ± 5.6	54.4 ± 1.3	44.3 ± 4.7	103 ± 2.5	92.99 ± 0.58	62.4 ± 1.5	50.3 ± 3.1
32 µg/mL	101 ± 3.9	93.2 ± 3.2	32.9 ± 9.8	17.2 ± 5	89 ± 0.95	70.7 ± 3	35 ± 1.3	32.5 ± 3.2
64 µg/mL	95.1 ± 3.7	79.2 ± 2.6	1.95 ± 1.3	-0.505 ± 4.6	93.4 ± 1.8	74.5 ± 2	3.86 ± 0.45	-0.64 ± 1.7
128 µg/mL	47.1 ± 10	58.2 ± 7.4	-2.04 ± 0.55	-1.68 ± 3.8	22.8 ± 14	54.7 ± 3	-3.09 ± 0.71	-2.06 ± 2.8
256 µg/mL	0.776 ± 1.6	26.4 ± 4.2	-0.471 ± 0.51	-0.387 ± 3.7	1.63 ± 1.4	31.8 ± 2.1	-3.37 ± 0.75	-1.06 ± 3
512 µg/mL	-1.1 ± 1.7	8.08 ± 0.97	-0.0558 ± 0.82	1.57 ± 3.5	2.07 ± 2.2	24.8 ± 1.6	-0.604 ± 4.3	1.82 ± 3.7
1024 µg/mL	7.05 ± 3.2	-0.475 ± 0.67	9.56 ± 6.7	6.77 ± 2.7	4.55 ± 2.2	13.3 ± 2.4	-1.91 ± 0.52	8.15 ± 5.1

Source: the supplement of paper PMC12578646, “Prodrug florfenicol amine is activated by intrinsic resistance to target Mycobacterium abscessus” (Nature Microbiology, 2025)
